# Experimental data from the RNAGym collection of RNA variant scans (doi:10.7554/elife.90254).
# Read counts are not given, so values of variants with three or more changes are uncertain.
# B1: LINE1-mini (parent)
# chain: GGCAGAGCUCAACACAGCGUGGCAAAGUGGCUGUGGCUAGACUGCC
# Variants of: B1
# Assay: self-cleavage, relative activity (ratio to wild type); higher = more cleavage; in vitro, sequencing; the parent is a self-cleaving ribozyme
row,Variant,self-cleavage
1,GGCAGAGCUCAACACAGAUUGGCAAAGUGGCAGUGGAUAGACUGCC [C18A G19U U32A C37A],0
2,GGCAGAGCUCCACACACCUUGGCAAAGUGGCUGUGGCUAGACUGCC [A11C G17C G19U],0.01
3,GGGAGAGCACAACACAGCGUGGCAAAGUGGAUGUGGCUAGACCGCC [C3G U9A C31A U43C],0.2
4,GACAGAGCUCAUCACAGCGUGGCAAAGUGGCUGUGGCAAGCCUGCA [G2A A12U U38A A41C C46A],0.02
5,GGGAGAGCUCAACACAGCGUUGCAAAGUGGCUGUGUCUAGACUGCA [C3G G21U G36U C46A],1.88
6,GGCAGAGCUCAACACAGCGUGGCCAAGUGGCUGUGGCUGGAAUGCC [A24C A39G C42A],0.06
7,GGCAGAGCUCAACAUAGCGUGGCAAGGUGGCUGUAGAUAGACUGGC [C15U A26G G35A C37A C45G],0.09
8,GCCAGAGCUCAACACCGCGUUGCAAAGUGGCUGUGCCUAGACUGCC [G2C A16C G21U G36C],0.03
9,UGCAGUGCUCAACACAGCGUGGCAAAGUGCCUGUGGCUAGACUGCC [G1U A6U G30C],0.13
10,GGCAGAGCGGAACACAGCGUUGCAAAGUGGCUGUGGCUAGAUUGCC [U9G C10G G21U C42U],0.01
11,GGUAGAGCUCAACACAGCGUGGCAAAUUGGCCGUGGCUAGACGGCC [C3U G27U U32C U43G],0.08
12,GACAGGGCUCAACACAGCUUGGCAAAGUGGCUGUGGCUAGACUGCC [G2A A6G G19U],0.07
13,GGCGGAGCUCAACACAGCGUGGCGAAGUAGCUGUGGCUCGACCGCC [A4G A24G G29A A39C U43C],0.2
14,GGCAGAGCUCAACAAAGCGAGUCAAAGUGGCUGUGGCUAGACCGCC [C15A U20A G22U U43C],0.36
15,GGCAGAGCUCAACACGGAGUGGCAAAGUGGUUUUGGCUAGGCUGCC [A16G C18A C31U G33U A41G],0.08
16,GGCAUAGCUCAACACAGCGUGGCAAAGUGUCCGUGGCUAGACUGCC [G5U G30U U32C],0.02
17,GGCGGAGCUCAACUGAGCGUCGAAAAGUGGCUGUGGCUAGACUGCC [A4G A14U C15G G21C C23A],0.14
18,AGCCAAGCUCAACACAGCGUGGUAAAGUCGCUGUGGCUAGACUGCC [G1A A4C G5A C23U G29C],0.05
19,GGCAGAGCUCAACACAGCGUGGGAAAGUGGCUUUGACUAUACUGCC [C23G G33U G36A G40U],0

row,Variant,self-cleavage
1,GGCAGAGCUAGACACAGCGUGGCAAAGUGGCUGUGGCUAGACAGCC [C10A A11G U43A],0.02
2,UGCAGAGCUCCACACAUCGAGGCAAAGUGGCUGUGGCUAGACUGCC [G1U A11C G17U U20A],0.01
3,GCCUGAGGUCAACACAGCCUGGCAAAGUGGCUGUGGCUAGACUGCC [G2C A4U C8G G19C],0.02
4,GGCGAAGCUUAACACAGCGUGGCAAAGUGGCUGUGGAUAGACUGCC [A4G G5A C10U C37A],0.03
5,GCCAGAGCUCAACCCAGCGUGGCAAAGUGGCUGUGUCUAGGCUGCC [G2C A14C G36U A41G],0.56
6,GGCAGAGCUCAACACAGCGUGGCAGAGUGUCUGUGGGUAGACUGCU [A25G G30U C37G C46U],0.05
7,GGCUGAACUCAACACAGCGUGUCAAAGUGGCUGUGGCAAGACUGCC [A4U G7A G22U U38A],0.04
8,GGCAGAGAGCAACACAGCGUGGCAAAGUGGCUGUGGCAAGACUGCA [C8A U9G U38A C46A],0.07
9,GGCAGAGCUCCACACAGCGUGGCAAAGCGGCUGUGGCUAGACUGAC [A11C U28C C45A],0.03
10,GGCAGAGCUCACCACAGCGUGGCAAAAUGGCCGUGGCUAGACUGCC [A12C G27A U32C],0.02
11,GGCAGAGCUCACCACAGUGUGGCAAACUGGCUGGGGCUAGACGGCC [A12C C18U G27C U34G U43G],0
12,GGCAGAGCGCAACACAGCGUGGCAAAGUGGCUGUGGCUGUACUGUC [U9G A39G G40U C45U],0.08
13,GGCAGAUCUCAACACAGCAUGGCAAAGUGGCUUUGACUAGACUGCC [G7U G19A G33U G36A],0.16
14,GGCAGAUCUCAACACAGCGUGGCAAAGUGGGUGUGCCUCGACUGCC [G7U C31G G36C A39C],0.02
15,GGCAGAGCUCGGCACAGCAUGGCAAAGUGGCUGUGGCUAGCCUGCC [A11G A12G G19A A41C],0.03
16,GGCAGAGCUCAACACAGCGUGGCAAAAUGGCUGUGGCUAGACUUCA [G27A G44U C46A],0.32
17,UGCAGAGCUCAACACAGCGUGGCAAAGUGGCCGUGGCUAGAAGGCC [G1U U32C C42A U43G],0.03
18,GUCUGAGCUCAACACAGCGUGGCAAAGAGGCUGUGGCUAGACUGCC [G2U A4U U28A],0.04
19,GGCAGAGCUUAACCCAGCGGGGCAAAGUGGCUGUGGCUAGACUGCC [C10U A14C U20G],0.03

row,Variant,self-cleavage
1,GGGAGAGCUCCACACAGCGAGGCAAAGUGGCUGUGGCUAGACUGCC [C3G A11C U20A],0.02
2,AGCAGAGCUCAAGACCGCGUGGCAAAUUGUCUGUGGCUAGACUGUC [G1A C13G A16C G27U G30U C45U],0.13
3,GGCAGAGCUCAACCCAGCGUGGCAAAGUGGCUGUGGCGAGUAUGCC [A14C U38G A41U C42A],0.02
4,GGCAGAGCUCAACACUGCGUGCCAAAGUGGCUGUGGUUAGACUGAC [A16U G22C C37U C45A],0.01
5,GGCAGAGCUCAUCACAGCGUAGCAUAGUGGCUGUGACUAGACUGCC [A12U G21A A25U G36A],0.02
6,GGCAGAGCUCAACACAGCGUGGCAAAGUGGUUGUGGGAAGAGUGCC [C31U C37G U38A C42G],0.01
7,GGCAGAGCUUAACACAGCGUGGCAACUUGGCUGUGGCUAGAUUGCC [C10U A26C G27U C42U],0.11
8,GGCAGAGCUCAAGACAGCGUGGCAAAGUGGCUGUGGCUAGACACCC [C13G U43A G44C],0.14
9,GGCAGAGCUCAUUACAGCGUGGCAAAGAGGCUGUGGCUAGACUGCC [A12U C13U U28A],0.05
10,GGCAGACCUCAGCACAGCGUGACAAAGUGGCUGUGGCUAGACUGCC [G7C A12G G22A],0.02
11,GGCAGAGCUAAACACAGUGUUGCAAAGUGGCUGUGGCUAGUCUGUU [C10A C18U G21U A41U C45U C46U],0.01
12,GGCAGAGCUCACCACAGCGUGGCAAAGUGGCUGUGGCUAGAUUUCC [A12C C42U G44U],0.01
13,GGUAGAGCUCAACACAUCGUGGCAAAGUGGCUGUGGCUAAACUGCC [C3U G17U G40A],0.02
14,GGCAUAGCUAAACACAGCGUGGUAAAGUGGCGGUGGCUAGACUGCC [G5U C10A C23U U32G],0.07
15,GACAGAGCUCAACACAGCGUGGCAAAUUGGCUGUGGCUAGACUGGC [G2A G27U C45G],0.45
16,GGCAGAGUGCAACACAGCGUGGCAAAGUGGCUGUGGCUAGACGGCC [C8U U9G U43G],0.08
17,GGCAGCGCUCACCACAGCGUGGCAAAGAGGAUGUGGCUACACUGCC [A6C A12C U28A C31A G40C],0.02
18,GGCAGAGCUCAACACAGCGUGGCAAAGUGUCUUUGACUAGAAUGCC [G30U G33U G36A C42A],0.04
